The experiment deals with BDF1 mice, M5076 sarcoma s.c., survival/tumor T/C. As to the kind of experiment: NCI In Vivo Anticancer Drug Screen. Data for tumor model Sarcoma M5076 (subcutaneous) in B6D2F1 (BDF1) mice. As to the method:
The antitumor activity of compounds was measured in mice bearing transplantable tumors. Survival or tumor size were measured and the results are expressed as the measurement made in the treated group (T) divided by the measurement made in the vehicle treated control group (C). The tumor model used in this assay is Sarcoma M5076 (subcutaneous) in B6D2F1 (BDF1) mice

Records with an inconclusive call do not appear. Certain results were filed several times, with different values. They are shown here; other results are not. The source may hold further records. The records of an entry repeat one measurement across runs, samples, wells, individuals or studies.

In the case of `CC1(C)N=C(N)N=C(N)N1c1ccc(CCCCc2ccc(S(=O)(=O)F)cc2Cl)c(Cl)c1`, the T/C (endpoint: median survival time, dose: 15.0 mg/kg/injection, schedule: Q01DX009 (ip), vehicle: other, higher = longer survival) was 123 % of control and 156 % of control.

As to `O=c1[nH]c(=O)n(C2CC(O)C(CO)O2)cc1F` (stereo unspecified), for the setting “endpoint: median tumor weight (est.), dose: 80.0 mg/kg/injection, schedule: Q02DX011 (ip), vehicle: Klucel (hydroxypropylcellulose) (HPC), higher = larger tumour”, the T/C is 2 % of control and 77 % of control.

Take `CC/C(=C(/CC)c1ccc(O)cc1)c1ccc(O)cc1`: the T/C (endpoint: mean tumor weight, dose: 30.0 mg/kg/injection, schedule: Q02DX011 (ip), vehicle: Klucel (hydroxypropylcellulose) (HPC), higher = larger tumour) was 17 % of control and 54 % of control.

Regarding `O=c1[nH]c(=O)n(C2CC(O)C(CO)O2)cc1C(F)(F)F` (stereo unspecified), the T/C (endpoint: median tumor weight (est.), dose: 75.0 mg/kg/injection, schedule: Q02DX011 (ip), vehicle: saline, higher = larger tumour) is 27 % of control and 55 % of control.

Regarding `CC(=O)O[C@H]1C(=O)[C@@]2(C)[C@H]([C@H](OC(=O)c3ccccc3)[C@]3(O)C[C@H](OC(=O)[C@H](O)[C@@H](NC(=O)c4ccccc4)c4ccccc4)C(C)=C1C3(C)C)[C@]1(OC(C)=O)CO[C@@H]1C[C@@H]2O`, the T/C (endpoint: median tumor weight (est.), dose: 10.0 mg/kg/injection, schedule: Q02DX011 (ip), vehicle: Klucel (hydroxypropylcellulose) (HPC), higher = larger tumour) was 60 % of control and 91 % of control.

For the compound `CC(C)CC(NC(=O)C(N)C(C)C)C(=O)NC(CCCCN)C(=O)NC(C(=O)O)C1CC(Cl)=NO1` (stereo unspecified), the T/C was 114 % of control and 154 % of control (endpoint: median survival time, dose: 3.2 mg/kg/injection, schedule: Q01DX010 (ip), vehicle: saline, higher = longer survival); 117 % of control and 159 % of control (endpoint: median survival time, dose: 6.4 mg/kg/injection, schedule: Q01DX010 (ip), vehicle: saline, higher = longer survival).

For the compound `COc1cc2c[n+](C)c3c4cc5c(cc4ccc3c2cc1OC)OCO5`, the T/C (endpoint: mean tumor weight, dose: 20.0 mg/kg/injection, schedule: Q02DX011 (ip), vehicle: Klucel (hydroxypropylcellulose) (HPC), higher = larger tumour) was 31 % of control and 68 % of control.

Take `O=C(O)C1(C(=O)O)CCC1.[NH2-].[NH2-].[Pt+2]`: under “endpoint: median survival time, dose: 12.5 mg/kg/injection, schedule: Q02DX030 (ip), vehicle: water, higher = longer survival”, the T/C was 112 % of control and 161 % of control.

As for `O=C1c2c(O)ccc(O)c2C(=O)c2c(NCCNCCO)ccc(NCCNCCO)c21`, the T/C (endpoint: median tumor weight (est.), dose: 0.5 mg/kg/injection, schedule: Q02DX011 (ip), vehicle: water, higher = larger tumour) was 52 % of control and 87 % of control.

Consider `O=C1C=CN(C2OC(CO)C(O)C2O)C(=O)C1` (stereo unspecified), for which, for the setting “endpoint: mean tumor weight, dose: 75.0 mg/kg/injection, schedule: Q02DX011 (ip), vehicle: saline, higher = larger tumour”, the T/C was 57 % of control and 93 % of control.

(Values after PubChem BioAssay AID288 (DTP/NCI, 2004).)
